Data as given in the supplement of paper PMC9334596.
Several values for one entry are separate records, joined by “and”; a condition that tells them apart may be missing. Identical values can stand only once. Whole data set: some 5,300 compounds, median “PER2::LUC luminescence relative to vehicle control” near 0.96, cut for the highest 2% near 1.3. The list shows a part of the results.

System: mPer2Luc MEF
Test: PER2::LUC luminescence relative to vehicle control (fold of vehicle); higher = higher PER2::LUC reporter signal
Settings: 10 µM
Method in brief: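 Mouse embryonic fibroblasts carrying the mPer2Luc reporter were seeded at ~3000 cells per well in 384-well plates, 48 h before compounds from commercial libraries were added at 10 μM. Cells were grown in DMEM with 10% FBS at 37 °C and 5% CO2. Luminescence was read with the ONE-Glo luciferase assay system 24 h and 30 h after treatment, followed by an alamarBlue viability assay. The value is PER2::LUC luminescence as fold of vehicle control.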

Compound	PER2::LUC luminescence (time after treatment 24 h)	PER2::LUC luminescence (time after treatment 30 h)
CC(=O)O[C@H]1CC[C@]2(C)C3=C(CC[C@H]2C1(C)C)[C@]1(C)CC[C@H]([C@H](C)CCC=C(C)C)[C@@]1(C)CC3	1.11	1.05
Nc1ncnc(Nc2ccc(Cl)cc2)n1	1.04	1.24
O=C(O)c1ccccc1Nc1ccccc1	1.02	0.974
CC[C@H](C)[C@H](N)C1=N[C@H](C(=O)N[C@@H](CC(C)C)C(=O)N[C@H](CCC(=O)[O-])C(=O)N[C@H](C(=O)N[C@H]2CCCCNC(=O)[C@H](CC(N)=O)NC(=O)[C@@H](CC(=O)[O-])NC(=O)[C@H](Cc3cnc[nH]3)NC(=O)[C@@H](Cc3ccccc3)NC(=O)[C@H]([C@@H](C)CC)NC(=O)[C@@H](CCCN)NC2=O)[C@@H](C)CC)CS1.[Zn+2]	0.958 and 1.14	0.998 and 1.01
CO[C@@H](C(=O)N1Cc2[nH]nc(NC(=O)c3ccc(N4CCN(C)CC4)cc3)c2C1)c1ccccc1	0.782 and 0.712 and 0.736	0.697 and 0.714 and 0.674
CN1CCN(C2=Nc3cc(Cl)ccc3Nc3ccccc32)CC1	0.789	0.747
Cc1c(Cc2ccc3ccccc3n2)c2cc(F)ccc2n1CC(=O)O	0.991	0.94
CCCCCCCCCCCCCCCC(=O)NCCO	1.01	0.936 and 0.926
CC(=O)NC[C@H]1CN(c2ccc(N3CCN(C(=O)CO)CC3)c(F)c2)C(=O)O1	0.974	1.02
CC(=O)C1(O)CCC2C3CC(C)C4=CC(=O)C=CC4(C)C3(F)C(O)CC21C (centres undefined)	0.724	1.1
CCCN(CCc1cccs1)[C@H]1CCc2c(O)cccc2C1	0.913 and 0.869	0.933 and 0.918
CC(=O)[C@H]1CC[C@H]2[C@@H]3CC=C4C[C@@H](OS(=O)(=O)O)CC[C@]4(C)[C@H]3CC[C@]12C	0.955	0.936
CS(=O)(=O)n1cc2c(n1)CN([C@H]1CO[C@H](c3cc(F)ccc3F)[C@@H](N)C1)C2	0.996	0.905
NCC=CC(=O)O (stereo in doubt)	1.03	1.05
CC(C)[C@@H](O)CC[C@@H](C)[C@H]1CC[C@H]2[C@@H]3CC=C4C[C@@H](O)CC[C@]4(C)[C@H]3CC[C@]12C	1.22	0.978
Cc1cc(=O)n(-c2ccccc2)n1C	1.19	1.03
Clc1ccc(COC(Cn2ccnc2)c2ccc(Cl)cc2Cl)c(Cl)c1 (centres undefined)	1.04 and 0.591	1.29 and 1.01
CC(C)(C)C[C@@H]1N[C@@H](C(=O)N[C@H]2CC[C@H](O)CC2)[C@H](c2cccc(Cl)c2F)[C@]12C(=O)Nc1cc(Cl)ccc12	0.814	0.683
O=C(O)c1cc(O)c2c(c1)[C@@H]([C@H]1c3cc(C(=O)O)cc(O)c3C(=O)c3c(O[C@@H]4O[C@H](CO)[C@@H](O)[C@H](O)[C@H]4O)cccc31)c1cccc(O[C@@H]3O[C@H](CO)[C@@H](O)[C@H](O)[C@H]3O)c1C2=O	0.739	0.72
O=c1c2ccccc2oc2ccccc12	1.07	1.15
CC1(C2CCCC2)Cc2cc(OCC(=O)O)c(Cl)c(Cl)c2C1=O (centres undefined)	1	0.896
CO[C@H]1O[C@@H]2O[C@@]3(C)CC[C@H]4[C@H](C)CC[C@@H]([C@H]1C)[C@@]24OO3	1.22	1.15
N#C/C(=C\c1ccc(O)c(O)c1)C(=O)c1ccc(O)c(O)c1	0.905	0.841
Cn1ncc(Cl)c1-c1cc(C(=O)N[C@H](CN)Cc2cccc(F)c2)sc1Cl	0.31	0.335
CCOc1ccc2nc(SCCN3CCOCC3)[nH]c2c1	1.06	1.08
NC12CC3CC(CC(C3)C1)C2	0.972	0.812

Compound	PER2::LUC luminescence (time after treatment 24 h)	PER2::LUC luminescence (time after treatment 30 h)
NCC(=O)O	0.992	0.878
Cc1ccc(-c2ncc(Cl)cc2-c2ccc(S(C)(=O)=O)cc2)cn1	0.814	0.983
OC[C@H]1O[C@@H](c2ccc(F)c(Cc3cc4ccccc4s3)c2)[C@H](O)[C@@H](O)[C@@H]1O	0.941	0.958
CCCc1c(OCCCCc2nnn[nH]2)ccc(C(C)=O)c1O	0.981	0.977
CC1CCc2c(N3CCC(O)CC3)c(F)cc3c(=O)c(C(=O)O)cn1c23 (centres undefined)	1.01	1.09
COc1cc2c(c(OC)c1OC)-c1c(cc(OC)c(OC)c1OC)CC(C)C(C)C2 (centres undefined)	0.948	1.09
CC(=O)N(O)CCCCCNC(=O)CCC(=O)N(O)CCCCCNC(=O)CCC(=O)N(O)CCCCCN	0.881	0.921
NC(Cc1cccc(-c2ccccc2CP(=O)(O)O)c1)C(=O)O (centres undefined)	0.89	0.879
O=S(=O)(c1cccc2cnccc12)N1CCNCC1	1.01	0.998
C=CC(C)(O)CCC1C(=C)CC(O)C2C(C)(C)CCCC12C (centres undefined)	0.928	0.914
N[C@H](CO)C(=O)O	0.97	0.891
CCN[C@H]1C[C@H](C)S(=O)(=O)c2sc(S(N)(=O)=O)cc21	0.986	0.988
CCNC(=O)CC[C@H](N)C(=O)O	1.03 and 1.08	0.981 and 1.06
C[N+](C)(C)CCCCCNCC12CC3CC(CC(C3)C1)C2	0.905	0.834
C[N+]1(C)CCC[C@H]1C(=O)[O-]	1.05	1.1
CC(C)/N=c1\cc2n(-c3ccc(Cl)cc3)c3ccccc3nc-2cc1Nc1ccc(Cl)cc1	0.807	1.07
O=C1Cc2cc(CCN3CCN(c4nsc5ccccc45)CC3)c(Cl)cc2N1	0.873 and 0.874	0.826 and 0.719
CCCCC1OC(=O)C2=CCCCC21 (centres undefined)	1.01	0.986
CC(=O)Nc1ccc(NC(=S)NC(=O)c2ccc(C(C)(C)C)cc2)cc1	0.812	0.973
O=C(NOCCO)c1ccc2cncn2c1Nc1ccc(I)cc1F	0.183	0.126
CCOc1cc(C(=O)N2CCC(N3CCN(C)CC3)CC2)ccc1Nc1ncc2c(n1)N(C1CCCC1)c1ccccc1C(=O)N2C	0.067	0.083
CCOC(=O)[C@]12CC1/C(=N\O)c1ccccc1O2 (some centres undefined)	0.949	0.99
O=c1cc(-c2ccc(O)c(O)c2)oc2cc(O)cc(O)c12	1.01	1.1
O=C(Cc1ccc(-c2ccc(OCCN3CCOCC3)cc2)cn1)NCc1ccccc1	0.341	0.546
CN1CC(=O)NC1=N	0.861	1.26
Nc1ncn([C@H]2C[C@H](O)[C@@H](CO)O2)c(=O)n1	0.983 and 0.918 and 0.511	1 and 0.868 and 0.744

Compound	PER2::LUC luminescence (time after treatment 24 h)	PER2::LUC luminescence (time after treatment 30 h)
CC(C)(C(=O)c1cccnc1)c1cccnc1	1.21	1.06
COC(=O)Nc1ccc(-c2nc(N3CCOCC3)c3cnn(C4CCN(Cc5cccnc5)CC4)c3n2)cc1	0.841	0.77
C[C@H](NC(=O)Cc1cc(F)cc(F)c1)C(=O)N[C@H](C(=O)OC(C)(C)C)c1ccccc1 [Gamma-SECRETASE INHIBITOR IX]	0.938	0.994
CN1CCc2cccc3c2[C@H]1Cc1ccc(O)c(O)c1-3	1.07 and 0.931 and 1.1	0.809 and 0.874 and 1.05
CNC(CC(=O)O)C(=O)O (centres undefined)	1.01	1.04
CN1C2=CC(=O)/C(=N\NC(N)=O)C=C2CC1S(=O)(=O)O (centres undefined)	0.898	0.938
CCCCC/C=C\CCC(=O)N[C@H]1[C@H](Oc2c3cc4cc2Oc2ccc(cc2Cl)[C@@H](O[C@@H]2O[C@H](CO)[C@@H](O)[C@H](O)[C@H]2NC(C)=O)[C@@H]2NC(=O)[C@H](NC(=O)[C@@H]4NC(=O)[C@H]4NC(=O)[C@@H](Cc5ccc(c(Cl)c5)O3)NC(=O)[C@H](N)c3ccc(O)c(c3)Oc3cc(O)cc4c3)c3ccc(O)c(c3)-c3c(O[C@H]4O[C@H](CO)[C@@H](O)[C@H](O)[C@@H]4O)cc(O)cc3[C@@H](C(=O)O)NC2=O)O[C@H](CO)[C@@H](O)[C@@H]1O	0.886	0.953
Cc1cc(Nc2ccc(NC(=O)c3ccc(Nc4ccnc5ccccc45)cc3)cc2)nc(N)n1	0.945	1
CCC(Cc1c(I)cc(I)c(N)c1I)C(=O)O (centres undefined)	0.46 and 0.66	0.986 and 0.701
CCC(NC(C)C)C(O)c1ccc(O)c(O)c1 (centres undefined)	1.1 and 0.981	0.91 and 0.843
C/C(=N\NC(=O)C(NC(=O)c1ccccc1)c1n[nH]c(=O)c2ccccc12)c1cccc(Br)c1 (centres undefined)	1.04	0.86
CN1CCN(C2=Cc3ccccc3Oc3ccc(Cl)cc32)CC1	0.747	0.689
C[C@]12CC[C@@H]3c4ccc(O)cc4CC[C@H]3[C@@H]1CC[C@@H]2OC(=O)CCC1CCCC1	1.07 and 0.825	1.27 and 0.92
C[C@H](NC(=O)[C@@H](O)c1cc(F)cc(F)c1)C(=O)N[C@@H]1C(=O)N(C)c2ccccc2-c2ccccc21	0.983	0.911
CC(C)N(CCCNC(=O)Nc1ccc(C(C)(C)C)cc1)C[C@H]1O[C@@H](n2ccc3c(N)ncnc32)[C@H](O)[C@@H]1O	1.05 and 1.09	1.03 and 0.969
O=C1C=C2CC3(O)COc4c(ccc(O)c4O)C3=C2C=C1O (centres undefined)	0.962	0.875
COc1ccc2[nH]c(I)c(CCNC(C)=O)c2c1	0.76	0.916
C[C@@H]1[C@H](O)[C@@H](C)/C=C/C=C/C=C/C=C/C=C/C=C/C=C/[C@H](O[C@@H]2O[C@H](C)[C@@H](O)[C@H](N)[C@@H]2O)C[C@@H]2O[C@](O)(C[C@@H](O)C[C@@H](O)[C@H](O)CC[C@@H](O)C[C@@H](O)CC(=O)O[C@H]1C)C[C@H](O)[C@H]2C(=O)O	0.888	0.845
O=C(O)CCCCN(CCc1ccccc1OCc1ccc(CCc2ccccc2)cc1)Cc1ccc(C(=O)O)cc1	1.01	0.893
CO[C@@]1(NC(=O)CSCC#N)C(=O)N2C(C(=O)O)=C(CSc3nnnn3C)CS[C@@H]21	0.792	0.916
CC(=O)O[C@H]1CC[C@]2(C)C3CC[C@@]4(C)[C@H](C5CC(C6OC6(C)C)OC5O)CC[C@]4(C)C3=CC[C@H]2C1(C)C (some centres undefined)	1.14	1.08
CC(C)NC[C@H](O)COc1ccc(CC(N)=O)cc1	0.918	1.07
O=c1cc(N2CCOCC2)oc2c1ccc1ccccc12	1.03	1.01
CCOC(=O)C(C)(C)Oc1ccc(Cl)cc1	0.977	0.81
c1cnc2c(c1)ccc1cccnc12	0.463	0.41
